Experimental data published in publication PMC3684423 (Structure (London, England : 1993), 2012).
Where no end group is shown, it is not given here. [ ]: non-standard residue; d: D form. pT = C[C@@H](OP(=O)(O)O)[C@H](N)C(=O)O

B1: Survivin K62A mutant (natural protein)
chain: not shown
B2: Survivin(K62Y/H80W) double mutant (natural protein)
chain: not shown
B3: Survivin D71A mutant (natural protein)
chain: not shown
B4: Survivin E51A mutant (natural protein)
chain: not shown
B5: Survivin E65A mutant (natural protein)
chain: not shown
B6: Survivin E76A mutant (natural protein)
chain: not shown

Target: T1, unmodified H3(1–10) peptide (UniProt P68431 2-11)
T1 peptide (looked up): ARTKQTARKS
Test: ITC

In order of rising dH:
1. B1  -7.71 ± 0.64 kcal/mol
2. B2  -3.52 ± 0.06 kcal/mol

In order of rising “stoichiometry N” value:
1. B2  0.85 ± 0.01
2. B1  0.92 ± 0.06

Target: T2, H3(1–15)T3ph peptide (UniProt P68431 in part)
T2 peptide (looked up): AR[pT]KQTARKSTGGKA
Test: ITC

In order of falling dH:
1. B5  -4.89 ± 0.35 kcal/mol
2. B1  -5.16 ± 0.13 kcal/mol
3. B3  -6.21 ± 0.8 kcal/mol
4. B4  -6.26 ± 0.26 kcal/mol
5. B6  -6.4 ± 0.6 kcal/mol

In order of falling “stoichiometry N” value:
1. B4  0.97 ± 0.03
2. B6  0.91 ± 0.06
3. B1  0.84 ± 0.02
4. B3  0.83 ± 0.09
5. B5  0.83 ± 0.05
